A word on the % Inhibition: it is the drop in the measured response relative to a control, in per cent.

About 540 (0.36%) of roughly 150,000 compounds showed an effect of 50% or more. The list shows a part of the results.

The record followed here is ChEMBL document CHEMBL4888484, “Replenishing the malaria drug discovery pipeline: Screening and hit evaluation of the MMV Hit Generation Library 1 (HGL1) against asexual blood stage Plasmodium falciparum ,using a nano luciferase reporter read-out” (2022).

This assay has as its system Plasmodium falciparum. Nature of the assay: Primary screen in NF54 nanoGlo assay, in single point, at 2uM, 72h; a lower Z score goes with more inhibition. It counts as functional, Erythrocyte. As to conditions: timepoint 72 hour.
With `Cc1ccc(N2C(=O)NC3c4ccccc4OC2(C)C3C(=O)Nc2ccc(Cl)cc2)cc1Cl` (centres undefined), the “% Inhibition” value is reported as 33% and the Z score is recorded as -4.51.
With `CC(C)(CNc1nc(C2CCCC2)ns1)C1(O)CCOCC1`, the “% Inhibition” value is given as -8% and the Z score was determined as 1.43.
For `O=C(O)c1ccc(Nc2nc(N3CCCCC3)nc(N3CCCCC3)n2)cc1`, in that order: 32% and -3.58.
For `Cn1c(C(=O)N2CC3CCC2C3)cccc1=O` (centres undefined), in that order: 9% and -1.07.
In the same order, the values of `O=C1c2ccccc2N[C@H](c2ccc3c(c2)OCCO3)N1c1ccc2c(c1)OCCO2` are 7% and -0.91.
Regarding `Cc1cc2c(cc1S(=O)(=O)N1CCC[C@H](C(=O)NC(C)(C)C)C1)OCC(=O)N2`, the “% Inhibition” value was 0% and the Z score came to 0.05.
In the same order, the values of `CC1(C)C[C@]1(C(=O)N1CCS(=O)(=O)CC1)c1ccccc1F` are 2% and -0.31.
For `COc1ccc(NS(=O)(=O)c2ccc3[nH]c4c(c3c2)CCCCCC4)cc1`, in that order: -18% and 2.21.
With `CC1(C(=O)N[C@H]2CCO[C@H](c3ccccn3)C2)CC1F` (some centres undefined), the “% Inhibition” value was 30% and the Z score is -4.37.
For `Cc1cc(C(=O)N2CC[C@@]3(CCCN(C4CCCC4)C3=O)C2)c(C)n1C`, in that order: -6% and 0.63.
For `O=C(CS(=O)(=O)c1ccc(O)cc1)N(C1CCCCC1)C1CCCCC1`, in that order: -8% and 0.8.
Regarding `COC1(OC)CC2(CN(Cc3ncc(C)o3)[C@@H]2c2ccccc2)C1`, the “% Inhibition” value is recorded as -1% and the Z score was 0.15.
In the same order, the values of `COc1ccccc1OCC(=O)N[C@@H]1C[C@H]2CC[C@@H]1C2` are 1% and -0.17.
For `COc1ccc(C(=O)N2[C@H](C(=O)NCc3ccco3)COC23CCN(C(=O)CC(C)(C)C)CC3)cc1`, in that order: 7% and -0.79.
For `O=C(N[C@H](c1ccccc1)c1cc2ccccc2o1)c1ccc2c(c1)OCO2`, in that order: -7% and 0.98.
Consider `O=S(=O)(Nc1ccc(Cc2ccccn2)cc1)c1ccc2oc3ccccc3c2c1`, for which the “% Inhibition” value is on record as -3% and the Z score was found to be 0.34.
For `COc1cc(C)c(-c2cccc(C(=O)NCCc3n[nH]c(=O)n3C)c2)cn1`, in that order: -7% and 1.2.
As to `O=S1(=O)CCN(Cc2nc3cc(C(F)(F)F)ccc3o2)CC1`, the “% Inhibition” value worked out at 2% and the Z score is given as -0.23.
Take `Cc1cnc(C(=O)NCC(=O)N2CCCCCCNC(=O)C[C@H]2c2ccccc2)cn1`: the “% Inhibition” value is listed as -6% and the Z score came out at 0.94.
In the same order, the values of `COC(=O)CN(C(=O)c1cccc(N(C)C)c1)C1CCCC1` are 3% and -0.4.
In the same order, the values of `O=C(Nc1nc(-c2ccc3c(c2)COC3)cs1)C1CC2CCC1C2` (centres undefined) are -18% and 2.83.
For `O=C(Nc1ccc(O)cc1)c1nn2c(c1Cl)N[C@@H](c1cccs1)C[C@H]2C(F)(F)F`, in that order: -9% and 1.36.
